{"source": "PubChem BioAssay AID1345083", "about": "(National Center for Advancing Translational Sciences (NCATS), 2018)", "note": "Hit rate of the full screen: of about 94,000 compounds, about 6,200 (6.6%) were called active. Inconclusive results, whose numbers are uncertain, are shown with a selection of clear calls. Calls come from the whole dose curve; as a rule, active = well fitted inhibition curve with a large enough effect; inconclusive = small, poorly fitted or top-dose-only effect; inactive = flat fitted curve, though single readings scatter. A potency beside an inconclusive call is a rough fit, not a confirmed value."}
{"experiment": "Cytotoxic Profiling in HEK 293 Cell Line of Diverse Libraries Using Quantitative High-Throughput Screening; note: nearly all actives have a fitted effect of over 60% in size; note: potency is the fitted concentration of half-maximal effect; tags give direction and shape of the fitted curve; for activity change, negative = cytotoxicity: % is set by controls: 0 for no effect and ±100 for the full control effect", "conditions": "HEK 293 viability, ATP luminescence (CellTiter-Glo), 48-72 h; activity change, negative = cytotoxicity: at 115 µM (top of the series) unless noted; series mostly up to 115 µM", "how_it_was_run": "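CellTiter-Glo luminescence (cellular ATP) was read after 48 or 72 hr of compound exposure at 37 degree Celsius. Cells were HEK 293 plated at 250 cells/well.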"}
{"compound": "COc1ccc(F)cc1-c1ccc(CN2CCC(N[S+](=O)([O-])CCC(F)(F)F)C2)cc1", "note": "(centres undefined)", "Potency": "inconclusive: 50.1 µM [inhibitor, partial curve, poor fit]"}
{"compound": "CN1CCC(NC(=O)c2ccc3c(c2)N(S(=O)(=O)c2ccccc2F)CC3)CC1", "Potency": "inconclusive: 79.4 µM [inhibitor, partial curve]"}
{"compound": "OC[C@@H]1O[C@H](CNCc2cccc(Cl)c2)[C@H](N2CCN(c3ccc(F)cc3)CC2)[C@@H]1O", "Potency": "inconclusive: 50.1 µM [inhibitor, partial curve, poor fit]"}
{"compound": "COC1CCC(C(=O)N2CC(CNc3ccccc3)C3(C2)CN(c2ccccc2)C3)CC1", "note": "(centres undefined)", "Potency": "active: 63.1 µM"}
{"compound": "Cc1ccc(CN2CCc3ncc(C(=O)NCc4ccccc4)n3CC2)o1", "Potency": "inconclusive: 11.2 µM [inhibitor, full curve, poor fit]"}
{"compound": "Cc1cc(=O)n(CC(=O)Nc2ccc(Cl)cc2)c(N2CCC(C)CC2)n1", "Potency": "active: 39.8 µM"}
{"compound": "O=C(c1ncccc1O)N1CCCC(CCc2cccc(C(F)(F)F)c2)C1", "note": "(centres undefined)", "Potency": "inconclusive: 50.1 µM [inhibitor, partial curve, poor fit]"}
{"compound": "COc1nc2nc(CC3CC3)n(C)c2cc1-c1ccc(N2CCOCC2)cc1", "Potency": "inconclusive: 89.1 µM [inhibitor, partial curve]"}
{"compound": "O=C1NC2(CCCN(C(=O)c3ccccc3F)C2)COc2ccccc21", "note": "(centres undefined)", "Potency": "active: 35.5 µM"}
{"compound": "Cc1cccc(C(=O)N2CC(c3noc(C4CCCN4C)n3)C2)c1", "note": "(centres undefined)", "activity change, negative = cytotoxicity": "inactive: -1.79%"}
{"compound": "O=[S+]1([O-])NC2(CCN(Cc3ccc(Cl)cc3)C2)COc2ncccc21", "note": "(centres undefined)", "activity change, negative = cytotoxicity": "inactive: -4.65%"}
{"compound": "COc1ccc(C(=O)N2CCC(C(=O)N3CCC(N4Cc5ccccc5C4=O)CC3)CC2)cc1", "Potency": "inactive"}
{"compound": "COc1ccc2c(c1)C(C(=O)Nc1ccc(C)c([S+](=O)([O-])N3CCOCC3)c1)=CC(C)(C)CO2", "activity change, negative = cytotoxicity": "inactive: -18.3%"}
{"compound": "CC(=O)N1C[C@H](NS(=O)(=O)c2ccc(C)c(Cl)c2)[C@@H](C2CC2)C1", "Potency": "inconclusive: 79.4 µM [inhibitor, single point]"}
{"compound": "N#Cc1cccc(C(=O)N2C[C@@H](Oc3cccnc3)C[C@H]2C(=O)N2CCOCC2)c1", "activity change, negative = cytotoxicity": "inactive: 4.55%"}
{"compound": "COc1ccc(-c2cccc(C(=O)N3CCN(C(=O)c4ccc(Cl)cc4)CC3)c2)nn1", "Potency": "inconclusive: 89.1 µM [inhibitor, single point]"}
{"compound": "O=C(Nc1ccc(Br)c(F)c1)c1cnc(-c2ccccc2)nc1-c1ccncc1", "Potency": "active: 31.6 µM"}
{"compound": "O=[S+]1([O-])CCCN1C1CCN(Cc2ccc(C(F)(F)F)cc2)CC1", "Potency": "inconclusive: 50.1 µM [inhibitor, partial curve, poor fit]"}
{"compound": "O=C1NC(=NC2CCCCC2)C2(CCCN(CC3CCCCC3)C2)N1c1cc(F)cc(F)c1", "note": "(centres undefined)", "Potency": "inconclusive: 35.5 µM [inhibitor, full curve, poor fit]"}
{"compound": "COc1cccc(NC(=O)Cn2c(=O)c(-c3noc(C)n3)c3n(c2=O)CCCC3)c1", "activity change, negative = cytotoxicity": "inactive: -8.36%"}
{"compound": "Cc1ccc(CNC(=O)c2ccc3c(c2)N(C(=O)c2ccc(F)cc2)CC3)o1", "Potency": "inconclusive: 56.2 µM [inhibitor, partial curve, poor fit]"}
{"compound": "COc1ccc(CCN2CCC3(C2)C(=O)N(C)C(=O)N3C)cc1", "note": "(centres undefined)", "activity change, negative = cytotoxicity": "inactive: -10.3%"}
{"compound": "O=C(NCc1ccccc1F)c1ccc2oc(-c3ccnc(Cl)c3)nc2c1", "activity change, negative = cytotoxicity": "inactive: -19.4% [at 172 µM]"}
{"compound": "O=C(c1ccc2c(c1)OCO2)N1CCC12Cc1ccccc1NC2=O", "note": "(centres undefined)", "Potency": "inconclusive: 100 µM [inhibitor, partial curve]"}
{"compound": "CN(C)CCNC(=O)C(C)(C)Oc1nn(Cc2cccc(Cl)c2)c2ccccc12", "Potency": "active: 31.6 µM"}
{"compound": "CN1c2cc(C(=O)Nc3ccc(C(N)=O)cc3)ccc2C(=O)N2CCCCCC21", "note": "(centres undefined)", "Potency": "inconclusive: 100 µM [inhibitor, single point]"}
{"compound": "Cc1ccccc1Oc1c(CCC(=O)NCC2CCCO2)c(C)nn1-c1ccc(F)cc1", "note": "(centres undefined)", "Potency": "inconclusive: 79.4 µM [inhibitor, partial curve]"}
{"compound": "O=C(NCc1ccc2c(c1)OCO2)C1CCN(c2cc(C(F)(F)F)ncn2)CC1", "Potency": "inconclusive: 39.8 µM [inhibitor, partial curve]"}
{"compound": "CC(=O)NC1(C)CCN(Cc2cccc(Nc3cccc(Cl)c3)c2)C1", "note": "(centres undefined)", "Potency": "active: 70.8 µM"}
{"compound": "CCc1ccc(N2CC(c3noc(-c4ccc(C)nc4)n3)CC2=O)cc1", "note": "(centres undefined)", "Potency": "inconclusive: 63.1 µM [inhibitor, single point]"}
{"compound": "CC(=O)N1CC(CO)C2(CCN(C(=O)c3cccc(Br)c3)CC2)C1", "note": "(centres undefined)", "activity change, negative = cytotoxicity": "inactive: 0.749%"}
{"compound": "COc1ccccc1-c1cccc(CN2CCCC(C(=O)NCc3cccnc3)C2)c1", "note": "(centres undefined)", "Potency": "inconclusive: 39.8 µM [inhibitor, partial curve, poor fit]"}
{"compound": "CC1=C[C@@H](CN(CC2CC2)CC2CC2)[C@H](C(C)C)C[C@H]1Cc1nc2ccncc2[nH]1", "Potency": "inconclusive: 100 µM [inhibitor, partial curve]"}
{"compound": "COc1ccc(CN2C(=O)CO[C@H]3CN(c4nccc(C)n4)C[C@H]32)cc1", "activity change, negative = cytotoxicity": "inactive: -6.36% [at 172 µM]"}
{"compound": "CC(C)CNC(=O)c1ccc2nnc(-c3ccc(OC(F)(F)F)cc3)n2c1", "Potency": "inconclusive: 79.4 µM [inhibitor, partial curve, poor fit]"}
{"compound": "O=C(C1CC1)N1CCC(c2noc(-c3ccccc3)n2)C1", "note": "(centres undefined)", "Potency": "inconclusive: 70.8 µM [inhibitor, single point]"}
{"compound": "Cc1ccccc1CCC1CCCNC1", "note": "(centres undefined)", "activity change, negative = cytotoxicity": "inactive: -18.6%"}
{"compound": "CCOc1cc(-c2nc(C3CC(=O)N(c4ccc(OC)cc4)C3)no2)cc(OCC)c1OCC", "note": "(centres undefined)", "Potency": "inconclusive: 50.1 µM [inhibitor, partial curve, poor fit]"}
{"compound": "NC(=O)c1cccc(CN2CCCC23Cc2ccccc2N(C(=O)c2ccc(Cl)cc2)C3)c1", "note": "(centres undefined)", "Potency": "inconclusive: 50.1 µM [inhibitor, partial curve, poor fit]"}
{"compound": "COc1cccc(-c2cccc(C(=O)N3CCCC3C(=O)N3CCN(c4ncccn4)CC3)c2)c1", "note": "(centres undefined)", "activity change, negative = cytotoxicity": "inactive: -25.8%"}
{"compound": "CC(CN1CC2(CCN(C(=O)c3ccc(=O)n(C)n3)CC2)OC1=O)c1ccccc1", "note": "(centres undefined)", "activity change, negative = cytotoxicity": "inactive: 0.0333%"}
{"compound": "COc1cccc(CN2CCC3(CC2)CC(c2ccccc2)C(=O)N3C)c1", "note": "(centres undefined)", "Potency": "inconclusive: 79.4 µM [inhibitor, single point]"}
{"compound": "CC(NC(=O)c1cc2n(n1)CC(c1ccc(Cl)cc1)OC2)c1ccc(F)cc1", "note": "(centres undefined)", "Potency": "inconclusive: 44.7 µM [inhibitor, partial curve, poor fit]"}
{"compound": "CO[C@H]1[C@H](NC(=O)c2ccc3c(c2)OCO3)c2ccccc2C12CCNCC2", "activity change, negative = cytotoxicity": "inactive: -12.6%"}
{"compound": "Cc1ccc(CNC(=O)c2ccc3c(c2)CN(Cc2cccc(F)c2F)CCO3)cc1", "Potency": "active: 79.4 µM"}
{"compound": "COc1cccc(CN2CCOC[C@H](Oc3ccccc3)C2)c1", "Potency": "inconclusive: 89.1 µM [inhibitor, partial curve, poor fit]"}
{"compound": "COc1ccc(C2=NOC3(CCN(C(=O)c4ccc5c(c4)OCO5)C3)C2)cc1", "note": "(centres undefined)", "Potency": "inconclusive: 56.2 µM [inhibitor, partial curve, poor fit]"}
{"compound": "COCC(=O)N1CCCC1C(=O)N1CCC(N2Cc3ccccc3C2=O)CC1", "note": "(centres undefined)", "activity change, negative = cytotoxicity": "inactive: -17.4%"}
{"compound": "COc1ccccc1-c1ccc(CN2CCCCC2C(=O)NCc2cccc(C(F)(F)F)c2)cc1", "note": "(centres undefined)", "Potency": "active: 28.2 µM"}
{"compound": "COc1ccccc1C(=O)N1CCCn2nc(C)c(-c3ccnn3C(C)C)c21", "activity change, negative = cytotoxicity": "inactive: -22.1% [at 172 µM]"}
{"compound": "CCCN1C(CC(C)C)=NS(=O)(=O)c2cc(NC(=O)c3ccccc3Cl)ccc21", "activity change, negative = cytotoxicity": "inactive: 3.71%"}
{"compound": "Cc1cc(-c2cc3c(cn2)CN(Cc2cccc(F)c2)CCN3)ccn1", "Potency": "active: 70.8 µM"}
{"compound": "Cc1nc(N2CCC(NC(=O)c3ccc4ccccc4n3)CC2)cc(C(F)(F)F)n1", "Potency": "active: 44.7 µM"}
{"compound": "CN(Cc1n[nH]c2c1CCCC2)C(=O)c1ccc(CCC(C)(C)O)cc1", "Potency": "inconclusive: 89.1 µM [inhibitor, single point]"}
{"compound": "CN(C/C=C/c1ccccc1)C(=O)c1ccc(C2CCCNC2)cc1", "note": "(centres undefined)", "Potency": "inconclusive: 56.2 µM [inhibitor, partial curve, poor fit]"}
{"compound": "Cc1c(-c2cc(C(=O)N[C@@H]3CCOC[C@H]3OCC(=O)O)no2)cnn1C", "outcome": "inactive"}
{"compound": "O=C(c1ccncc1)N1CCC(n2cc(-c3nc(-c4ccccc4)no3)nn2)CC1", "Potency": "inconclusive: 35.5 µM [inhibitor, partial curve, poor fit]"}
{"compound": "N#Cc1ccc(CN2CCC3(C2)C(=O)Nc2ccccc23)cc1", "note": "(centres undefined)", "Potency": "inconclusive: 79.4 µM [inhibitor, partial curve]"}
{"compound": "COc1ccc(Cn2c(=O)c(C(=O)N3CCN(C(=O)Nc4ccccc4F)CC3)nc3cccnc32)cc1", "activity change, negative = cytotoxicity": "inactive: -24.5%"}
{"compound": "CN1CCN(C(=O)CC2CCCN(c3cnn(CC4CC4)c(=O)c3)C2)CC1", "note": "(centres undefined)", "activity change, negative = cytotoxicity": "inactive: 11.2%"}
{"compound": "COc1ccc(OCc2nc(C3CN(C(=O)C4(c5ccc(OC)cc5)CC4)C3)no2)cc1", "Potency": "inconclusive: 50.1 µM [inhibitor, partial curve, poor fit]"}
{"compound": "CCC1(O)CCC12CCN(C(=O)c1ccc(OC)nc1)CC2", "note": "(centres undefined)", "activity change, negative = cytotoxicity": "inactive: -6.89%"}
{"compound": "Cc1cc(C)cc(-c2ccccc2CN)c1", "Potency": "active: 112 µM"}
{"compound": "NCC(=O)N1Cc2ccccc2CC2(CCCCN2CC2CCOCC2)C1", "note": "(centres undefined)", "activity change, negative = cytotoxicity": "inactive: -4.35%"}
{"compound": "OCCC1CN(CCOc2ccc(F)cc2)CCN1CC1CCCCC1", "note": "(centres undefined)", "Potency": "inconclusive: 89.1 µM [inhibitor, single point]"}
{"compound": "COCc1ccc2c(c1)c(OC(C)(C)C(=O)Nc1cccnc1)nn2Cc1cccnc1", "activity change, negative = cytotoxicity": "inactive: -4.46% [at 172 µM]"}
{"compound": "COCCN1C(=O)c2ccccc2C(C(=O)NCCCc2ccccc2)C12CCCC2", "note": "(centres undefined)", "Potency": "inconclusive: 89.1 µM [inhibitor, single point]"}
{"compound": "Cc1ccccc1C(=O)N1CCCN(c2ccnc3ccnn23)CC1", "Potency": "inconclusive: 50.1 µM [inhibitor, partial curve, poor fit]"}
{"compound": "COc1ccccc1-c1cccc(C(=O)N2CCN(C(=O)Cc3cccc(Cl)c3)CC2)c1", "Potency": "inconclusive: 50.1 µM [inhibitor, partial curve, poor fit]"}
